# Data as given in PubChem BioAssay AID624417 (National Center for Advancing Translational Sciences (NCATS), 2012).
# About 6,400 (1.6%) of roughly 410,000 compounds were called active. The shares of active, inactive and inconclusive entries below differ from those in the screen. The call rests on the fitted dose curve; in most records, active means well fitted inhibition curve with a large enough effect; inconclusive means small, poorly fitted or top-dose-only effect; inactive means no such curve, though single readings can be large or run the other way. No potency is given beside an inconclusive call; the fits are too rough.
# Target: Glucagon-like peptide 1 receptor (Homo sapiens) (UniProt P43220)
# Assay: qHTS of GLP-1 Receptor Inverse Agonists (Inhibition Mode); further: nearly all actives have a fitted effect of over 55% in size
# Conditions: HEK293 GLP-1R CRE-luciferase, luminescence, 24 h, GLP-1R form is constitutively active; activity change, negative = inhibition: at 38.3 µM (top of the series) unless noted
# In short: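 Readout was luciferase luminescence, measured 12 min after detection reagent at room temperature. Beforehand, GLP-1R reporter HEK293 cells had sat 12 h, then received compounds for 24 hr at 37 deg C.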
# On the % scale 0 is the no-effect control and ±100 the full control effect; potency means the concentration at half of the fitted maximal effect; tags describe the fitted curve by direction and shape.
# Chain of UniProt P43220 (P43220 whole entry, looked up): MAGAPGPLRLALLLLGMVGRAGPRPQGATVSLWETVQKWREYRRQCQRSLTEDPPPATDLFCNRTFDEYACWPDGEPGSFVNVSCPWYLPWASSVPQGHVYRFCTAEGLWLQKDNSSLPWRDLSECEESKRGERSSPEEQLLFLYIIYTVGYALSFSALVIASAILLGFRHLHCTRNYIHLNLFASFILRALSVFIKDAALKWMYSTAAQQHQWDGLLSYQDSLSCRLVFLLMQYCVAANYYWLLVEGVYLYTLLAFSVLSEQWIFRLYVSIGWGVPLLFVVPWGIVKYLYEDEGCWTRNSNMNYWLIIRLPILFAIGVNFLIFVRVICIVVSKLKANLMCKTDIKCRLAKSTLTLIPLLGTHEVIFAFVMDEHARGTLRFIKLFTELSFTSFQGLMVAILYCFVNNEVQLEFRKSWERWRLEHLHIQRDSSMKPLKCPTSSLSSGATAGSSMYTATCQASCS
Compound,Potency,"activity change, negative = inhibition"
Cn1c(NCCN2CCCC2)nc2cc(-c3ccsc3)sc2c1=O,"inconclusive [inhibitor, single point]",–
CCc1c(C)nc(SC/C=C/c2ccccc2)[nH]c1=O,–,inactive: -6.02%
CN(C)N1C(N)=C(C#N)C(c2ccsc2)C2=C1CC(C)(C)CC2=O (configuration not stated),–,inactive: 13.9%
COc1ccc(Cl)cc1NC(=O)c1c(NCc2ccc(C)o2)sc2c1CCC(C)C2 (configuration not stated),"inconclusive [inhibitor, single point]",–
Cc1ccc(-c2cn3cccnc3n2)cc1NC(=O)C(C)(C)Oc1ccc(Cl)cc1,"inconclusive [inhibitor, single point]",–
C[N+](C)(C)CC(O)CC(=O)O (configuration not stated),–,inactive: 6.36%
OC(c1ccc(F)c(F)c1)c1nc(-c2ccc(Cl)cc2)cs1 (configuration not stated),"inconclusive [inhibitor, single point]",–
CCn1c2ccccc2c2cc(NC(=O)c3ccccc3[N+](=O)[O-])ccc21,"inconclusive [inhibitor, partial curve, poor fit]",–
Cc1c(C(=O)Nc2ccccc2Br)oc2ccc(S(=O)(=O)N3CCCCCC3)cc12,–,inactive: 16.7%
Cn1c2ccccc2c2ncn(Cc3ccco3)c(=O)c21,–,inactive: -2.5%
C=C(C)CSc1nc2sc3c(c2c(=O)n1Cc1ccccc1)CC(C)(CC)OC3 (configuration not stated),"inconclusive [inhibitor, full curve]",–
CCN(CC)CCN(C(=O)c1ccc2c(c1)OCCO2)c1nc2ccc(C)cc2s1,"inconclusive [inhibitor, partial curve, poor fit]",–
CN(Cc1ccno1)Cc1cn(Cc2ccccc2)nc1-c1ccc2c(c1)OCO2,–,inactive: 0%
Cc1c(C(=O)N/N=C/c2cccnc2)sc(=S)n1C,–,inactive: -4.6%
CCN(CC)CCCNc1nc2ccccc2c2[nH]c3ccc(OC)cc3c12,"inconclusive [inhibitor, partial curve, poor fit]",–
COc1ccccc1-c1oc2ccccc2c1-c1ccccc1OC,"inconclusive [inhibitor, single point]",–
COc1ccc2[nH]cc(CCN=C(NC(=O)c3ccccc3F)Nc3nc(C)cc(C)n3)c2c1,"inconclusive [inhibitor, partial curve, poor fit]",–
CN(C)CCCN(C(=O)CCOc1ccccc1)c1nc2ccc(F)cc2s1,"inconclusive [inhibitor, partial curve, poor fit]",–
CCOC(=O)Cc1csc(NC(=O)/C=C/c2ccccc2Cl)n1,"inconclusive [inhibitor, partial curve]",–
COC(=O)c1ccc2c(c1)C(C)(C)C(/C=C/c1ccc(OC)c(OC)c1OC)=[N+]2C,"inconclusive [inhibitor, partial curve, poor fit]",–
COc1cc(NC(=O)c2cccs2)c(OC)cc1NC(=O)Cc1ccccc1,"inconclusive [inhibitor, single point]",–

Compound,Potency,"activity change, negative = inhibition"
COc1ccc(OC)c(CN2CCN(C(=O)c3cc(S(=O)(=O)Nc4ccccc4OC)ccc3C)CC2)c1,"inconclusive [inhibitor, partial curve, poor fit]",–
O=c1cc(-c2ccccc2)c2ccc3c(c2o1)CN(Cc1cccc(Cl)c1)CO3,"inconclusive [inhibitor, partial curve, poor fit]",–
Cc1cccc(N2C(=O)C(Cl)=C(N3CCOCC3)C2=O)c1,–,inactive: 14.3%
c1ccc2nc3c(cc2c1)CCCCCC3,"inconclusive [inhibitor, partial curve, poor fit]",–
CCC(C(=O)NC(C)CCc1ccccc1)n1nc(C)n2c(cc3occc32)c1=O (configuration not stated),"inconclusive [inhibitor, full curve]",–
Cc1cccc(-c2nn(-c3ccccc3)cc2C(=O)Nc2cccc(S(=O)(=O)NC3=NCCC3)c2)c1,"inconclusive [inhibitor, partial curve, poor fit]",–
CCCCCN(C(=O)CCC(=O)OCCOc1ccccc1Cl)c1c(N)n(CCCC)c(=O)[nH]c1=O,"inconclusive [inhibitor, single point]",–
O=C(Nc1cccc(S(=O)(=O)N2CCOCC2)c1)c1cc2ccccc2o1,"inconclusive [inhibitor, full curve, poor fit]",–
CCN(CC)CCCNC(=S)Nc1ccc(Br)cc1,"inconclusive [inhibitor, partial curve, poor fit]",–
Cc1ccccc1N(C(=O)c1snc(C(N)=O)c1N)C(C(=O)NC1CCCCC1)c1ccc(O)cc1 (configuration not stated),"inconclusive [inhibitor, single point]",–
O=C(c1ccncc1)N1N=C(C2CCCCC2)CC1(O)C(F)(F)F (configuration not stated),"inconclusive [inhibitor, full curve, poor fit]",–
CSc1ccc(C(=O)C2CCCN(Cc3cccc4nccnc34)C2)cc1 (configuration not stated),"inconclusive [inhibitor, full curve, poor fit]",–
CCCCN(c1ccccc1)S(=O)(=O)c1cccc2cccnc12,"inconclusive [inhibitor, single point]",–
Cc1ccccc1Cn1nc(C)c(NC(=O)c2sc3ccccc3c2Cl)c1C,"inconclusive [inhibitor, full curve]",–
CN1CCN(c2ccc(S(=O)(=O)N3CCCCC3)cc2NC(=O)c2ccc(F)cc2F)CC1,"inconclusive [inhibitor, single point]",–
COc1cccc2c(=O)cc(C)n(CC(=O)Nc3ccc(C)c(C)c3)c12,"inconclusive [inhibitor, partial curve]",–
Cc1nn(-c2ccccc2)c2[nH]c(C(F)(F)F)cc(=O)c12,"inconclusive [inhibitor, single point]",–
Cc1ccc2cc(C)c(N3CCN(c4ccccn4)CC3)nc2c1,"inconclusive [inhibitor, single point]",–
CCn1c2ccccc2c2cc(CN3CCN(Cc4ccc(Br)cc4)CC3)ccc21,"inconclusive [inhibitor, partial curve, poor fit]",–
Cc1ccc(NC(=O)COc2ccc(N3CC(C(N)=O)CC3=O)cc2)c(C)c1 (configuration not stated),–,inactive: 1.68%
Cc1ccc(S(=O)(=O)Nc2ccc(N(C)S(=O)(=O)c3ccc(C)cc3)cc2)cc1,"inconclusive [inhibitor, single point]",–

Compound,Potency,"activity change, negative = inhibition"
COC(=O)c1ccc(C(=O)OC)c(NC(=O)COC(=O)C2CCCCC2)c1,–,inactive: 2.95%
O=S(=O)(c1ccccc1)N1CCN(C2CCN(Cc3ccccc3)CC2)CC1,"inconclusive [inhibitor, partial curve]",–
Cc1cc(C)cc(NC(=O)Nc2ccccc2N2CCCCC2)c1,"inconclusive [inhibitor, full curve, poor fit]",–
O=C(O)c1ccc(/C=C/C(=O)c2ccc3c(c2)OCCCO3)cc1,"inconclusive [inhibitor, partial curve, poor fit]",–
CCC1CCC2(CC1)NC(=O)N(CC(=O)N1CCc3ccccc31)C2=O (configuration not stated),"inconclusive [inhibitor, single point]",–
Cc1ccc(-c2nc(CS(=O)CC(=O)NCCCc3ccccc3)c(C)o2)cc1 (configuration not stated),"inconclusive [inhibitor, single point]",–
O=C(CSc1nc2nn(-c3ccccc3)c(=O)c-2c2n1CCCCC2)Nc1ccc(OC(F)F)cc1,"inconclusive [inhibitor, partial curve]",–
Cc1cccc(C(=O)N=c2sccn2C)c1[N+](=O)[O-],–,inactive: 30.8%
CN1CCN(c2ccc(Cl)cc2NC(=O)/C=C/c2ccc(F)cc2)CC1,"inconclusive [inhibitor, partial curve, poor fit]",–
Cc1ccc(-c2nc3ccccc3[nH]2)s1,"inconclusive [inhibitor, full curve, poor fit]",–
CCCCSc1nnc(CNC(=O)C23CC4CC(CC(C4)C2)C3)n1Cc1ccccc1,"inconclusive [inhibitor, full curve, poor fit]",–
Cc1ccc(C)c(Cn2nnc3c(=O)[nH]c(C4CCN(S(=O)(=O)c5ccc(S(=O)(=O)NC6CC6)cc5)CC4)nc32)c1,"inconclusive [inhibitor, partial curve, poor fit]",–
COc1ccc(CNC(=O)CCNS(=O)(=O)c2ccc(Cl)cc2)cc1,–,inactive: 22.4%
CC1(C)CC(NC(=O)c2ccc(Cl)c(Cl)c2)CC(C)(C)N1,"inconclusive [inhibitor, partial curve, poor fit]",–
Cn1cccc1CNC(=O)Nc1ccc(Cl)cc1,"inconclusive [inhibitor, single point]",–
Cc1cc(C)nc(N/N=C2/CCCC/C2=C\c2ccccc2)n1,"inconclusive [inhibitor, full curve, poor fit]",–
CC(C)NC(=O)NC(=O)COc1ccc(Br)cc1Br,"inconclusive [inhibitor, single point]",–
Cc1cc(C)n(-c2nc(N(c3ccccc3)c3ccccc3)nc(-n3nc(C)cc3C)n2)n1,"inconclusive [inhibitor, partial curve, poor fit]",–
COc1cccc(C(=O)N(Cc2nc(-c3cccc(C)c3)no2)C(C)C)c1OC,"inconclusive [inhibitor, single point]",–
CC(Oc1ccc(Cl)cc1Cl)C(=O)N(C)c1ccccc1 (configuration not stated),"inconclusive [inhibitor, partial curve, poor fit]",–
